According to the supplement of paper PMC12217912:
The list shows a part of the results. The full chains were built here from the parent and the listed change. Inactive controls read about 0.05.

B1: TEV protease; numbered along this chain (parent)
chain: MGESLFKGPRDYNPISSSICHLTNESDGHTTSLYGIGFGPFIITNKHLFRRNNGTLVVQSLHGVFKVKDTTTLQQHLVDGRDMIIIRMPKDFPPFPQKLKFREPQREERICLVTTNFQTKSMSSMVSDTSCTFPSGDGIFWKHWIQTKDGQCGSPLVSTRDGFIVGIHSASNFTNTNNYFTSVPKNFMELLTNQEAQQWVSGWRLNADSVLWGGHKVFMVKPEEPFQPVKEATQL

Variants of: B1
Assay: raw area under fraction-flipped curve 0-4 h after induction (AUC4h, not background-subtracted), DNA-recorder readout of cleavage of the substrate (dimensionless); higher = more cleavage of the substrate by the protease variant
Conditions: temperature: 34 °C; time window: 0-4 h after rhamnose induction
Method: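 In vivo DNA recorder in E. coli TOP10(DE3) ΔrhaA at 34 °C. Each TEVp single-site mutant (parent TEVp 0) is paired with a single-site variant of the 7-mer TEVs (canonical ENLYFQ|S). The substrate sits between flexible linkers in a Bxb1-sfGFP-TEVs-SsrA fusion, so cleavage stabilises Bxb1 and speeds flipping of a recombination array, read by NGS. The value is the raw area under the fraction-flipped curve over 0-4 h after rhamnose induction (AUC4h), with ≥20 reads per time point. It is not background-subtracted; inactive controls average about 0.047.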
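Also: Bxb1 expression induced with 0.2% (w/v) L-rhamnose at OD600 near 0.5, cultures sampled hourly, flipped fraction per protease–substrate barcode pair counted by paired-end Illumina sequencing.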

Variant	area with substrate ENLYFQC	area with substrate ENLYFQG	area with substrate ENLYFQI	area with substrate ENLYFQL	area with substrate ENLYFQN	area with substrate ENLYFQP	area with substrate ENLYFQR	area with substrate ENLYFQS	area with substrate ENLYFQT	area with substrate ENLYFQV
K216N	0.108	0.0886	0.0769	0.0646	0.0937	0.0514	0.0694	0.103	0.0722	0.0792
K216C	0.12			0.0564				0.0953	0.0655	
K216V	0.105	0.0894	0.0668	0.0598	0.0689	0.0621		0.0979	0.0646	0.0525
K216M	0.103		0.0504	0.0697				0.0972		
K216T		0.0663		0.0566	0.0799	0.0587	0.0509	0.0999	0.0676	0.0646
I145E							0.0551	0.0664	0.0453	
T115G					0.0712		0.0741	0.0954	0.0563	0.0591
V58P			0.0487	0.0272				0.0258	0.0337	
F95M		0.102						0.096		
T132M		0.0894	0.0527	0.0615	0.0782		0.0571	0.0969	0.0626	
Q197Y					0.076	0.0405	0.053	0.0941		
T174L					0.077			0.102		
L77K						0.0501	0.0596	0.0688	0.0341	
E224L	0.103	0.0735	0.0528	0.0633	0.0874			0.0924	0.077	
E223L	0.0978	0.0614	0.069	0.0587	0.0766	0.0669	0.0372	0.0908	0.0669	0.0675
N193S		0.0844	0.0483			0.0698		0.11	0.0637	

Variant	area with substrate ENLYFQC	area with substrate ENLYFQG	area with substrate ENLYFQI	area with substrate ENLYFQL	area with substrate ENLYFQN	area with substrate ENLYFQP	area with substrate ENLYFQR	area with substrate ENLYFQS	area with substrate ENLYFQT	area with substrate ENLYFQV
P222W	0.171	0.101	0.0579		0.0754	0.0913	0.0385	0.087	0.0615	0.0557
G138H				0.0678				0.0943		
S121T						0.048		0.125	0.0522	
A232E		0.102	0.0597	0.069	0.083		0.0668	0.111	0.0383	
A232Q	0.128	0.0928	0.0593	0.0469		0.0589		0.107	0.0413	0.0634
G8N							0.0485	0.112		
G8I		0.0911			0.0689		0.0515	0.094		
G8C			0.0503	0.0671			0.0499	0.0983	0.055	
D208L	0.0783		0.0572		0.0571		0.0633	0.0694		
D208C	0.0622	0.0745	0.0389	0.0475	0.0587	0.0534		0.0708	0.0713	0.0652
D208R	0.0772	0.0785			0.0694	0.0654	0.0629	0.0779	0.0426	
D208I		0.0839	0.0673	0.0532	0.0579	0.0528	0.0626	0.0697	0.0568	0.0695
D208H	0.0855		0.0495			0.0685		0.0764		0.0589
D208M	0.0881	0.1	0.0583	0.0595	0.0878	0.0608	0.0588	0.0747	0.0359	0.0586
P184R		0.0686	0.0395	0.0611	0.0528			0.0683		
P184E		0.0727			0.0826	0.0841	0.0579	0.0686	0.0489	

Same assay, conditions: temperature: 34 °C; time window: 0-4 h after rhamnose induction

Variant	area with substrate ENLYFQW	area with substrate ENLYFQY	area with substrate ENLYFQM	area with substrate ENLYFQQ	area with substrate ENLYFQD	area with substrate ENLYFQH	area with substrate ENLYFQK	area with substrate ENLYFQF	area with substrate ENLYFQE
K216N	0.0698	0.0912							
K216C			0.0767	0.0664					
K216V		0.0838			0.0876	0.0698	0.0475		
K216M	0.0536	0.0497			0.0856			0.0733	
K216T	0.065	0.0676	0.0863		0.0987				
I145E	0.0543		0.063		0.0454			0.0598	
T115G	0.053	0.0669			0.0685		0.079		
V58P			0.0273						
F95M						0.0595			
T132M	0.0667	0.081	0.0818		0.0531		0.059	0.0714	
Q197Y			0.0991						
T174L		0.0584		0.0974	0.0587			0.0706	
L77K		0.0434	0.0595						
E224L	0.0432		0.0835		0.0981	0.05	0.0623		
E223L	0.0636	0.0694	0.0811	0.0584	0.0701	0.0726	0.0628		
N193S		0.0705	0.0955						

Variant	area with substrate ENLYFQW	area with substrate ENLYFQY	area with substrate ENLYFQM	area with substrate ENLYFQQ	area with substrate ENLYFQD	area with substrate ENLYFQH	area with substrate ENLYFQK	area with substrate ENLYFQF	area with substrate ENLYFQE
P222W			0.0726	0.128		0.0489	0.0647		
G138H			0.0728			0.0752	0.0558		
S121T			0.0856			0.0749	0.0375		
A232E	0.0676	0.0707			0.0072		0.0566	0.105	0.0548
A232Q	0.0506	0.0984	0.0975				0.0689	0.103	
G8N		0.0924	0.123			0.0773			
G8I			0.0518						
G8C			0.0909						
D208L			0.0642	0.0483	0.0505		0.0651	0.0382	
D208C	0.0676	0.0632	0.0677	0.0478		0.051	0.0643		
D208R	0.0626	0.0524			0.0584				
D208I	0.0525	0.0637	0.0544	0.0514		0.0754	0.0701	0.0638	
D208H	0.0525	0.0659		0.0165	0.0758	0.0689			
D208M	0.0482		0.0649			0.0687			0.0717
P184R					0.0596		0.079		
P184E	0.0418						0.0649	0.0654	0.0578
